This is one part of the list. At the low end of the ranking the order means little.

The assay deals with GST-SBP-SLBP (stem-loop binding protein) (UniProt Q14493). The experiment in a line: targeted RNA Bind-n-Seq.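 Note: DESeq read counts versus GST-SBP nonspecific binding control pulldown.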 The settings on record: RBNS binding buffer: 25 mM Tris pH 7.5, 150 mM KCl, 3 mM MgCl2, 0.1% Tween, 0.5 mg/mL BSA, 1 mM DTT; 27 nM protein, 750 pM RNA pool; temperature not stated; high values mean tight binding.
Take “GGUCACGUCUCAAUCAACUCUUUUCCCAGGGAAAGCCCUGGCUAUUUCAACAGCUCGCAGUCAAG”: the binding signal (log2 fold change) was -0.00148.

For “GGUCACGUCUCAAUCAACUCAUCUCCAGGAGUUUUCUCCUGUAUAUUCAACAGCUCGCAGUCAAG”, the binding signal (log2 fold change) is -0.114.

As to “GGUCACGUCUCAAUCAACUCUAUUCCCAGGGAAAGCCCUGGCAUACUCAACAGCUCGCAGUCAAG”, the binding signal (log2 fold change) turned out to be 0.0039.

“GGUCACGUCUCAAUCAACUCCCUCGAGGGGGGGAAAACCCCUUUACCCUCAUUCUCAACAGCUCGCAGUCAAG”: the binding signal (log2 fold change) was 0.288.

Turning to “GGUCACGUCUCAAUCAACUCUUCCCCAGGAGUUUACUCCUGCAAUUUCAACAGCUCGCAGUCAAG”, the binding signal (log2 fold change) was 0.233.

Consider “GGUCACGUCUCAAUCAACUCGUCUUCAGGAGUUUACUCCUGCAUAUUCAACAGCUCGCAGUCAAG”, for which the binding signal (log2 fold change) came out at 0.148.

In the case of “GGUCACGUCUCAAUCAACUCUCCCGAGGGGGGGAAAACCCCUUUACCCUCAAUAUCAACAGCUCGCAGUCAAG”, the binding signal (log2 fold change) was -0.143.

As for “GGUCACGUCUCAAUCAACUCUCUAGAGGGGGGGAAAACCCCUUUACCCUCAUCCUCAACAGCUCGCAGUCAAG”, the binding signal (log2 fold change) is -0.36.

As to “GGUCACGUCUCAAUCAACUCAAUAGAGGGGGGGAAAACCCCUUUACCCUCGAUAUCAACAGCUCGCAGUCAAG”, the binding signal (log2 fold change) was 0.435.

On to “GGUCACGUCUCAAUCAACUCCCUCGAGGGGGGGAAAACCCCUUUACCCUCAAAUUCAACAGCUCGCAGUCAAG”, for which the binding signal (log2 fold change) was -0.163.

Turning to “GGUCACGUCUCAAUCAACUCGUCUUCAGGAGUUUCCUCCUGCUUAUUCAACAGCUCGCAGUCAAG”, the binding signal (log2 fold change) is -0.182.

“GGUCACGUCUCAAUCAACUCUUUUCCAGGAGUUUCCUCCUGUAUUUUCAACAGCUCGCAGUCAAG”: the binding signal (log2 fold change) is -0.119.

Regarding “GGUCACGUCUCAAUCAACUCUAUUCCCAGGGAAAACCCUGGUUAAUUCAACAGCUCGCAGUCAAG”, the binding signal (log2 fold change) came out at 0.0158.

Take “GGUCACGUCUCAAUCAACUCUAUCUCCAGGGAAAUCCCUGGUAUUCUCAACAGCUCGCAGUCAAG”: the binding signal (log2 fold change) was -0.0841.

Consider “GGUCACGUCUCAAUCAACUCAAUCCCCAGGGAAACCCCUGGUUAACUCAACAGCUCGCAGUCAAG”, for which the binding signal (log2 fold change) is -0.0913.

With “GGUCACGUCUCAAUCAACUCAUGUCCAGGAGUUUUCUCCUGUAAUCUCAACAGCUCGCAGUCAAG”, the binding signal (log2 fold change) was -0.188.

Regarding “GGUCACGUCUCAAUCAACUCAUUUCCAGGAGUUUGCUCCUGCAUAUUCAACAGCUCGCAGUCAAG”, the binding signal (log2 fold change) came out at 0.159.

On to “GGUCACGUCUCAAUCAACUCUAUAGAGGGGGGGAAAACCCCUUUGCCCUCCAAUUCAACAGCUCGCAGUCAAG”, for which the binding signal (log2 fold change) was found to be 0.162.

On to “GGUCACGUCUCAAUCAACUCCUAAGAGGGGGGGAAAACCCCUUUACCCUCGUCCUCAACAGCUCGCAGUCAAG”, for which the binding signal (log2 fold change) came to 0.382.

With “GGUCACGUCUCAAUCAACUCUAUUUCAGGAGUUUCCUCCUGUAAACUCAACAGCUCGCAGUCAAG”, the binding signal (log2 fold change) is -0.0986.

On to “GGUCACGUCUCAAUCAACUCUUUUCCAGGAGUUUUCUCCUGUUUUCUCAACAGCUCGCAGUCAAG”, for which the binding signal (log2 fold change) is -0.0946.

On to “GGUCACGUCUCAAUCAACUCUUUAGAGGGGGGGAAAACCCCUUUACCCUCCAUAUCAACAGCUCGCAGUCAAG”, for which the binding signal (log2 fold change) was -0.111.

For “GGUCACGUCUCAAUCAACUCUUUCUCCAGGGAAACCCCUGGCAAACUCAACAGCUCGCAGUCAAG”, the binding signal (log2 fold change) was -0.057.

With “GGUCACGUCUCAAUCAACUCAUUCCCAGGAGUUUUCUCCUGCAUAGUCAACAGCUCGCAGUCAAG”, the binding signal (log2 fold change) was found to be 0.16.

Take “GGUCACGUCUCAAUCAACUCUUCCUCCAGGGAAAUCCCUGGUUUAUUCAACAGCUCGCAGUCAAG”: the binding signal (log2 fold change) was -0.144.

Take “GGUCACGUCUCAAUCAACUCUCCUGAGGGGGGGAAAACCCCUUUACCCUCUUAAUCAACAGCUCGCAGUCAAG”: the binding signal (log2 fold change) is -0.311.

Turning to “GGUCACGUCUCAAUCAACUCUAUCUCAGGAGUUUACUCCUGCAUACUCAACAGCUCGCAGUCAAG”, the binding signal (log2 fold change) came out at 0.00323.

Regarding “GGUCACGUCUCAAUCAACUCUUUCCCAGGAGUUUACUCCUGUUAUUUCAACAGCUCGCAGUCAAG”, the binding signal (log2 fold change) was 0.138.

With “GGUCACGUCUCAAUCAACUCAAUCUCAGGAGUUUUCUCCUGUAUUCUCAACAGCUCGCAGUCAAG”, the binding signal (log2 fold change) came out at 0.238.

For the sequence “GGUCACGUCUCAAUCAACUCAGUCUCCAGGGAAAUCCCUGGCUUUUUCAACAGCUCGCAGUCAAG”, the binding signal (log2 fold change) amounted to 0.172.

As for “GGUCACGUCUCAAUCAACUCUUUUUCCAGGGAAAGCCCUGGCUUUUUCAACAGCUCGCAGUCAAG”, the binding signal (log2 fold change) was determined as 0.208.

Consider “GGUCACGUCUCAAUCAACUCAUCCUCAGGAGUUUCCUCCUGUUAAGUCAACAGCUCGCAGUCAAG”, for which the binding signal (log2 fold change) is 0.328.

As to “GGUCACGUCUCAAUCAACUCAAAGGAGGGGGGGAAAACCCCUUUACCCUCAUCGUCAACAGCUCGCAGUCAAG”, the binding signal (log2 fold change) amounted to 0.138.

For “GGUCACGUCUCAAUCAACUCAUUUUCAGGAGUUUCCUCCUGUUAACUCAACAGCUCGCAGUCAAG”, the binding signal (log2 fold change) was -0.076.

In the case of “GGUCACGUCUCAAUCAACUCAUACGAGGGGGGGAAAACCCCUUUACCCUCAUCAUCAACAGCUCGCAGUCAAG”, the binding signal (log2 fold change) came out at 0.144.

For the sequence “GGUCACGUCUCAAUCAACUCUAAGGAGGGGGGGAAAACCCCUUUACCCUCACCAUCAACAGCUCGCAGUCAAG”, the binding signal (log2 fold change) is -0.284.

As for “GGUCACGUCUCAAUCAACUCAUUCCCAGGAGUUUCCUCCUGCAUAUUCAACAGCUCGCAGUCAAG”, the binding signal (log2 fold change) stood at 0.189.

In the case of “GGUCACGUCUCAAUCAACUCUCACGAGGGGGGGAAAACCCCUUUACCCUCCAAAUCAACAGCUCGCAGUCAAG”, the binding signal (log2 fold change) was -0.14.

With “GGUCACGUCUCAAUCAACUCAACUUCAGGAGUUUACUCCUGCUAUCUCAACAGCUCGCAGUCAAG”, the binding signal (log2 fold change) was -0.0186.

As to “GGUCACGUCUCAAUCAACUCUUCGUCCAGGGAAAUCCCUGGCUAAUUCAACAGCUCGCAGUCAAG”, the binding signal (log2 fold change) is -0.204.

As to “GGUCACGUCUCAAUCAACUCUUUUUCCAGGGAAAUCCCUGGCAGUCUCAACAGCUCGCAGUCAAG”, the binding signal (log2 fold change) was 0.0895.

As to “GGUCACGUCUCAAUCAACUCAUUUCCCAGGGAAAUCCCUGGUAAUUUCAACAGCUCGCAGUCAAG”, the binding signal (log2 fold change) was -0.0308.

Consider “GGUCACGUCUCAAUCAACUCUUUUCCCAGGGAAAUCCCUGGCUUAUUCAACAGCUCGCAGUCAAG”, for which the binding signal (log2 fold change) is 0.04.

As to “GGUCACGUCUCAAUCAACUCAACUUCAGGAGUUUACUCCUGCAAUUUCAACAGCUCGCAGUCAAG”, the binding signal (log2 fold change) was -0.0602.

As to “GGUCACGUCUCAAUCAACUCUUCGUCCAGGGAAAUCCCUGGUAAAUUCAACAGCUCGCAGUCAAG”, the binding signal (log2 fold change) stood at 0.00514.

Turning to “GGUCACGUCUCAAUCAACUCAUCCUCCAGGGAAAACCCUGGCUAUUUCAACAGCUCGCAGUCAAG”, the binding signal (log2 fold change) amounted to 0.0579.

On to “GGUCACGUCUCAAUCAACUCACAAGAGGGGGGGAAAACCCCUUUGCCCUCACAAUCAACAGCUCGCAGUCAAG”, for which the binding signal (log2 fold change) turned out to be 0.0571.

The record behind these values is PMC5892938.
